In all, about 4,500 sequences were measured (“median log2 fold change of GCK-ALFA target abundance (FLAG IP / Myc IP barcode read proportion)”: median about 0.078, lowest 2% from about -0.6 on). The list shows a part of the results.
B1: GBRAP_160_4083 (protein)
chain: SAAYKALIAEVTAIFDEAEEMMEGVTREEAVAIALVALGEVALLIEEEEALSEEDKETLLAVVDEAEREVRAAADATVEEIKALLRRHRDRLVATIKALD
B2: GBRAP_78_6633 (protein)
chain: EVEELLDKAIEELDKAARLAKKLPKEKQNEVLDLIVDAMSYILEAEEEGFDLKLLEEALKKVEEAIKEVKKLDLPEAKELLKELEKAKELLKKAIELVKK
B3: GBRAP_166_4881 (protein)
chain: MEEKLVEETLKKLKELIEKASKLNPIEQIDKYIEIAELLKKAREEGLSEEKLLEIIKETLRLTHEAGLNPRQLLGVLIDIAELSEEEIDELEEEIERLEK
B4: GBRAP_52_6114 (protein)
chain: MEAAAAAAVDEVLALVRAGDLDAARARLKEIAATWDDAELEVLAAALAARAAAAPAADLDAVWRLAEMAADELEEAGRDEALADLLLARTAAALAAREAA
B5: GBRAP_26_5474 (protein)
chain: VEEEVEAALKEMEKLLKELLDPETAAAATASAFTIVEEAVEEMKKNAKDKEKLKKAAEKAVKEIAADLETLGVDADTRAKIVAKAKAELEKIVKAIEKEA
B6: GBRAP_196_5418 (protein)
chain: DALEEIKKLEEESKKETEGIKESDYTIVANITPENLEEEVKKTAEIAKDLNNPTIELVHPGDLEEILKALKKLKEELKKKGVISEIIVVSEALEEAEEKA
B7: GBRAP_186_5377 (protein)
chain: EEKLEEKLDEIIDKLEKEGYRVIVIDTIEELTPEEKEAIERDIEAAGELAKETGKKIALVIPFKGTEEEVKEAKAFIEELNKKAEEESGLKVVLAAEVVE
B8: GBRAP_78_6622 (protein)
chain: ELEELLDEAIEKIGRAAKLALKLKTPLADELLGELVDAASELVEAEEKGGDLEELKEAREELKKALKIAKELGNEELEKELKEALKLVEEAIKLVEEKKK
B9: GBRAP_184_5172 (protein)
chain: MVEEFEIEVKNEEELKEKLDKIEEAVKGKKAKLVVIVKAEKITEEMARVLMERLKRMKEAGYVTDVLVDIEGEVSEETIDVLVKLADEAGVKLVIAIPEE
B10: GBRAP_95_7078 (protein)
chain: DDDLETLEALATTAVDLYEAGLRAQAARAIRAALDEAEALGYAVPDQALMTELLRAAADLALEHFDEAEIERLLAFAKAVGAPQEIIDALEAALAAKKAA
B11: GBRAP_83_6940 (protein)
chain: AEHIVVAAPGDHVAEAVEAALDLHKEEGYEVSLEFLFTDEEAEKVLKEVKKLLAAGVEVDITLIHTDGNKEVLEKAVKEIKEAAKEAGVKVNVEGYVIEP
B12: GBRAP_160_3984 (protein)
chain: EERLEKLIKYIKEEFEETIKMIKGESHEERVTIVRGTIGEIIMELSEDPNVSEEAEEEVDKVGRELVETIESNPELTEEEIEELIKKAEEKIIEILKKDY
B13: GBRAP_160_4366 (protein)
chain: SSALKALAAEIKALREEFEKEAKDLSPEETRTLAIGVLSEVAALVFDNPAVSDELEDEIMAIIDEAIKQLKENKDASPEEIVAITNEAIDRIIALIEAEA
B14: GBRAP_128_3242 (protein)
chain: SQEELLEEAKKLIEEIVKADVETAKKLTEKLIELLKKLNDEAREEVAEYLEKELEKLSAEKLEAVADTLRENRPKLDPYTAALVAGVEIDALELALEKEE
B15: GBRAP_52_5936 (protein)
chain: MEERLERDLDEAIALVKAGDLEGARALMREIARTYSEEEIEAFIERLAARAREAAPEDIPAVLTLAEIAAEVLEEEGWDEVLADDLLARVSAAAYENLQK
B16: GBRAP_43_5753 (protein)
chain: MKELIEGTIDFATLAAESPEISEEQKLKIIKDTMEIVADEKIDLTEELLEMVKAAAKSLSKENLEELLKHAKELAEKYPELKEMFEKAAEILEKAIKALE
B17: GBRAP_137_3659 (protein)
chain: AKVKVEVRIEGDFAEVVIKAEDKETAEKAADIAIDVARETGVAAAVSVDLEEKEVYIDLIGDRAQLRAFIDALAARLAKEYDVDLTVEEDGETREETLKK
B18: GBRAP_35_5544 (protein)
chain: MEEEETVEMLLNTMEDIVLALPDVSPEEQLILTKHLIKLAKLAIEEKPKNKELLKRGIEALKEAIKIVKESDLPEEEKEKLLKELEEAKEKFEKLLKKVE
B19: GBRAP_11_2777 (protein)
chain: KKEKLEEAARLAEELAETIERLLEEGTDDEELRERAERLLEELTELVKEHLDEASKKLAEIAREEWEEAKKDPENRVEHLKRMLAAVRTLLGDILLDLEE
B20: GBRAP_84_7010 (protein)
chain: EKLEKFKEKVREIFENSSPESRIKVLTYILLNFNGKVATAAVEIALEIDPEVAYEALSLAYEQTSDDENEITEEEVLELLKKEGEELAKLFKEAVKLAKA
B21: GBRAP_186_5375 (protein)
chain: EEELEEILDEIIDELEAEGYRVIVVETIRKLTEEEKKAIEREVEAVGALAKETGKKYALVIPFIGSKEEVEEAKKFVEELNKKAEAESGLKVRLAGAVSP
B22: GBRAP_160_4067 (protein)
chain: SEEIEELKKEIEEIFEEAIEEMKGEDHENRVTIARVMKGEIVMLLHERPEVSDEAIEEADKIGDELVETIENNPDLTDEEIEELIEKAKEKIKEVLDKKS
B23: GBRAP_125_3129 (protein)
chain: SKEEDLENLALFLKALGLSEDDIEEAVKEAEKHGFKGTVYAIALALDWEELAELVEKLTEEEVKEILKRVAEELKKNPNLTPEEVKELFLKLAKEVLEKR
B24: GBRAP_35_5507 (protein)
chain: SADDTAAEMLVATIEDLVKAVPDIDVETATTIANQLIDSAEELAEELKDNPEALERLRDAVEALRDAIAKNYGDSPLAKETLARLDALIEKLDKRLEEAK
B25: GBRAP_95_7028 (protein)
chain: NDDVLALASHAEVTLTALELGDRELAARSAREAVEELKKVTPEEIAEALTDEEKLALLRVATEVLSPEEAQEVLDKLLAASTDPETRARLRAIWEEAAAR
B26: GBRAP_14_3789 (protein)
chain: MEEKLKLVEEAREEIKEDARRLAPEKAEEIEKAIDEIFEKLKKKIKETGDAIKAVEEAREELLAKLAEILADEPALTRAALLAFADNELLLLEEELEELE
B27: GBRAP_137_3643 (protein)
chain: PKVTITVKTEGDLVTITVTFDDPEKAEEVAELITDIAVENGALAISVEIDEDGTLTAEIDVPKEKADALLKALVDALTKEFKATVTIKDENTGETTTVKA
B28: GBRAP_11_2904 (protein)
chain: KKEKLEKLAELLKKAVALLKELLAKGTDDEKLHAEALKVAEEALKLAKEVLDESDVELAEEAVELLKQAKADPANAAQYVQQALAIFSVLEGQVLLKIEE
B29: GBRAP_128_3161 (protein)
chain: AVEEAKKKTKELMEKIKNSSLEEVEKLAKELVEMMKTASDEEVEAMAEVILEELPKLSAEKLEILADVLEEKMPELSPFGQNQAADVLVEALNEAEELEE

Target: GABARAP, O95166
Sequence (O95166 whole entry, the tested form may be a part): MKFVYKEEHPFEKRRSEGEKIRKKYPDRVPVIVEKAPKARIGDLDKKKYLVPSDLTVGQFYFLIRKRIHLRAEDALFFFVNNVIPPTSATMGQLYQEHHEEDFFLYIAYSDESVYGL
Assay: median log2 fold change of GCK-ALFA target abundance (FLAG IP / Myc IP barcode read proportion) (log2 ratio); each designed protein is fused to an ALFA-tag nanobody in HEK293 cells to bring the named protein to FLAG-tagged glucokinase (GCK); Myc marks an untargeted standard; higher = target protein stabilised (more abundant)
Conditions: target protein: 3xFLAG-MCP-GCK-ALFA reporter; HEK293 landing pad (RPLP)
Procedure, shortened: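 An ALFA-nanobody-fused binder library was recombined into HEK293 landing-pad cells and induced with 2 μg mL^−1 doxycycline. Cells were transfected with a plasmid expressing a FLAG-tagged target and a Myc-tagged standard. After 48 h, lysates underwent anti-FLAG and anti-Myc immunoprecipitation, and circular RNA barcodes were reverse transcribed, amplified and sequenced. Target abundance is the per-binder median log2 ratio of FLAG to Myc barcode read proportions. Barcodes needed ≥10^−7 proportion in both replicates, binders ≥3 barcodes per replicate, and a 10^−6 pseudocount was added; the two replicates were pooled.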

Binder | median log2 fold change
B1 | -0.332
B2 | 0.435
B3 | 0.316
B4 | -0.0124
B5 | 0.241
B6 | 0.096
B7 | 0.18
B8 | 0.126
B9 | 0.178
B10 | 0.186
B11 | -0.00062
B12 | 0.34
B13 | 0.0763
B14 | -0.0414
B15 | -0.254
B16 | -0.0458
B17 | 0.0598
B18 | -0.612
B19 | 0.0948
B20 | -0.251
B21 | 0.0698
B22 | 0.0344
B23 | 0.31
B24 | 0.202
B25 | 0.199
B26 | -0.144
B27 | 0.061
B28 | 0.354
B29 | 0.0696

Source: the supplement of paper PMC12632987
